Laboratory results from PubChem BioAssay AID1963576 (National Center for Advancing Translational Sciences (NCATS), 2024).
Screen size: about 46,000 compounds; about 60 (0.1%) were called active. Not shown: some 3% with an inconclusive outcome. The call rests on the fitted dose curve; in most records, active means well fitted inhibition curve with a large enough effect; inconclusive means small, poorly fitted or top-dose-only effect; inactive means no such curve, though single readings can be large or run the other way. The list shows a part of the results.

Assay: Primary qHTS assay for Inhibitors of ovarian cancer metastasis using an organotypic tumor microenvironment (TME) model. Further: nearly all actives have a fitted effect of over 65% in size.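 On activity change, negative = inhibition: plate controls were DMSO wells for no effect and tomatine positive control wells for full effect.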
Conditions: SKOV3ip1-GFP adhesion/invasion on 3D omental model, fluorescence; series mostly up to 45.8 µM; activity change, negative = inhibition: at the top concentration
Summary of the method: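 A 3D layer of primary human omental fibroblasts, mesothelial cells, fibronectin and collagen I, grown 48 hr, received SKOV3ip1-GFP cells in serum-free medium plus compounds at 0.36-46 umol/L. After 2 hr RT and 16 hr 37 C, fixed adherent GFP cells were counted; normalized to DMSO and tomatine.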

outcome, inactive:
CSc1cccc(NC(=O)N2CCN(c3cc(-c4noc(C)n4)ccc3C)CC2)c1
COc1ccc(CNC(=O)CC(c2ccc(OC)c(OC)c2)N2Cc3ccccc3C2=O)cc1 (configuration not stated)
Cc1cc2ccccc2n1CCNC(=O)c1cccc(Cl)c1
CCOC(=O)c1sc2ncn(CC(=O)Nc3ccc(C)cc3Br)c(=O)c2c1C
COc1ccc(C)cc1NC(=O)Cn1c(=O)ccc2cc(S(=O)(=O)N3CCCC3)ccc21
CCOc1cc(C(=O)N2CCc3c([nH]c4ccccc34)C2c2ccccc2)cc(OCC)c1OCC (configuration not stated)
COc1ccc(-c2noc(CSc3nnc(-c4ccncc4)n3-c3ccc(C)cc3)n2)cc1
CCOc1ccc(OCC(=O)Nc2nnc3n2CCS3)cc1
COc1ccccc1-n1c(/C=C/c2c(C)n(C)c3ccccc23)nc2ccccc2c1=O
O=S(=O)(c1ccc2c(c1)CCN2)N1CCCCCC1
CCC(C)OC(=O)/C(C#N)=C\c1ccc(-c2cccc(C(F)(F)F)c2)o1 (configuration not stated)
Cc1cccc(C)c1Nc1nc2ccccc2nc1NS(=O)(=O)c1ccccc1
CCc1ccc(NCc2cc3cc(OC)c(OC)cc3n(CC(=O)Nc3cc(C)ccc3C)c2=O)cc1
O=C(Cn1c(=O)nc(-c2ccccc2)c2ccccc21)NCc1ccc(F)cc1
C=Cc1ccc(CN2C(=O)c3ccccc3Sc3ccc(C(=O)OCc4ccco4)cc32)cc1
Cc1cc(O)c(C(c2ccccc2)N2CCN(C)CC2)c(=O)n1Cc1ccco1 (configuration not stated)
COc1ccc(Br)cc1CNC(=O)c1nn(-c2ccc(C)cc2)c(=O)c2c1c1ccccc1n2C
Fc1ccc(Cc2cn3cc(-c4ccccc4)nc3s2)cc1
O=C(C1CC1)N1CCN(c2nc3c(Cl)cccc3s2)CC1
COc1cccc(CNC(=O)CSc2ncc(S(=O)(=O)c3ccc(Br)cc3)c(=O)[nH]2)c1
Cc1ccc(-c2nnc(Nc3ccc(Cl)c(Cl)c3)c3ccccc23)cc1S(=O)(=O)NCCO
CC1CCN(S(=O)(=O)c2ccc3c(c2)CCN3C(=O)Nc2ccc(Br)cc2)CC1
Cc1ccc(NC(=O)c2ccc(CN3CC(=O)N4CCCCC4C3=O)cc2)cc1 (configuration not stated)
CCN(c1ccccc1)S(=O)(=O)c1ccc(-c2cc(C)no2)s1
CSc1ccc(Cn2nnc(C(=O)Nc3ccc(C)cc3Cl)c2N)cc1
COc1cc(NC(=O)Cn2c(=O)n(CC3CCCO3)c(=O)c3ccccc32)cc(OC)c1 (configuration not stated)
COc1ccc(C(=O)Nc2nnc(C(C)C)s2)cc1OC
CCC1CCCCN1S(=O)(=O)c1cc(C(=O)Nc2ccc(C)c(F)c2)ccc1F (configuration not stated)

Activity change, negative = inhibition, inactive:
COc1ccc(-c2n[nH]c3c2C(c2ccc(O)cc2)N(c2ccc(Br)cc2)C3=O)cc1 (configuration not stated) -9.18%
CCOc1ccc(NC(=O)CSc2cn(CC(=O)N3CCCCCC3)c3ccccc23)cc1 -11.7%
C=C(C)CSc1nc2sc3c(c2c(=O)n1-c1ccccc1)CCC(C)C3 (configuration not stated) -4.69%
CCN1CCN(c2ncnc3c2cnn3-c2ccc(C)cc2)CC1 -0.131%
CCOC(=O)c1c(C)[nH]c(C)c1S(=O)(=O)N1CCCC(C(=O)Nc2ccc(F)cc2F)C1 (configuration not stated) 4.1%
COc1cc(C2CC(=O)N(c3ccccc3)C3=C2C(=O)OC3)cc(OC)c1OC (configuration not stated) 2.77%
O=C(NC1CCCCCC1)c1ccc2c(c1)sc1nc(-c3ccccc3)cn12 -42.6%
CCOc1ccc(NC(=O)CSC2=Nc3ccccc3C3=NC(CC(=O)NCc4ccco4)C(=O)N23)cc1 (configuration not stated) 13.2%
COc1ccccc1CNc1ccc(-c2nc(-c3ccncc3)no2)cc1[N+](=O)[O-] -7.44%
N#Cc1c[nH]n2c(NC3CCCC3)c(-c3cccc(Cl)c3)nc12 -0.738%
Cc1ccc(N(CC(=O)Nc2ccc(C)c(F)c2)S(=O)(=O)c2c(C)n[nH]c2C)cc1 -0.132%
COc1cccc(NC(=O)c2cnn(-c3ccccc3)c2-n2cccc2)c1 -22.4%
CCc1ccc(Sc2cc(C(=O)NC(C)CC)c3ccccc3n2)cc1 (configuration not stated) -3.58%
CCOC(=O)C(Cc1c[nH]c2ccccc12)NC(=O)COc1ccc(Cl)c(C)c1 (configuration not stated) 3.91%
COc1cccc(CNC(=O)C2CCC(CNS(=O)(=O)c3ccc(Br)s3)CC2)c1 (configuration not stated) 8.72%
CCOc1nc(NC(=O)NS(=O)(=O)Oc2ccccc2)nc(-c2ccccc2)n1 -0.728%
CCOc1ccc(Sc2cc(C(=O)NCCc3ccccc3)c3ccccc3n2)cc1 7.86%
Cc1ccc2c(c1)c1c(c(=O)n(Cc3ccccc3)c(=O)n1CC(=O)NCc1ccccc1Cl)n2C -13.8%
Clc1ccc(COC(Cn2ccnc2)c2ccc(Cl)cc2Cl)cc1 (configuration not stated) 11.3%
COc1ccc(C(C)n2c(C)c3c(C)nnc(C)c3c2C)cc1 (configuration not stated) -6.58%
CN(C(=O)CN1C(=O)CCSc2ccc(S(=O)(=O)N3CCCC3)cc21)c1ccccc1 -4.07%
CCOC(=O)c1c(C)[nH]c(C)c1S(=O)(=O)NCC(=O)N1CCN(c2cccc(C)c2)C(C)C1 (configuration not stated) 3.62%
Cc1cccc(NC2=CC(c3cccc(Br)c3)N(c3cccc(C)c3)C2=O)c1 (configuration not stated) -4.04%
CC1=C(C(=O)N2CCN(c3cccc(C)c3C)CC2)C2(CCCCC2)OC1=O 6%
COc1ccc(-c2noc(CN(C(C)C)S(=O)(=O)c3ccc(Br)cc3)n2)cc1 4.52%
O=C(Nc1ccccc1)N(Cc1ccc(F)cc1)c1ccccn1 -4.25%
CN(C)c1ccc(CNS(=O)(=O)c2ccc3[nH]c4c(c3c2)CCCCC4)cc1 -5.39%
Cc1nc2ccc(S(=O)(=O)NC(CC(C)C)C(=O)N3CCN(c4ccc(F)cc4)CC3)cc2s1 (configuration not stated) 2.65%
Cc1ccc(CNC(=O)c2c(O)nc3c(C)cccn3c2=O)cc1 -4.36%
CCN(CC)CCCNC(=O)c1ccc2c(c1)NC(=O)C(CS(=O)(=O)Cc1cccc(Br)c1)N2 (configuration not stated) -2.9%
CCOC(=O)c1cccc(NC(=O)CCC(=O)N2CC(C)Oc3ccc(C)cc32)c1 (configuration not stated) 0.812%
CCOC(=O)c1ccc(NC(=O)c2csnn2)cc1 -12.4%
COc1ccc(CCNC(=O)CSc2nnnn2-c2cccc(C(C)=O)c2)cc1OC 2.55%
Cc1ccccc1-c1noc(-c2cccnc2N(C)Cc2ccc(Cl)cc2)n1 -15.8%
NC(=O)NO 6.01%
Clc1ccccc1C(c1ccccc1)(c1ccccc1)n1ccnc1 -12%
CC1CCN(S(=O)(=O)c2ccc3c(c2)N(CC(=O)NC(C)C)C(=O)CO3)CC1 22.2%
Cc1c(C(=O)Nc2ccc(C(C)C)cc2)sc2nc[nH]c(=O)c12 -9.1%
Cc1ccccc1C(=O)N1CCN(CCc2ccccn2)CC1 6.9%
COc1ccc(CNC(=O)c2ccc3c(c2)CCN3S(=O)(=O)c2ccc(C)cc2)cc1 -8.89%
COc1ccc(CNC(=O)CSc2ncc(S(=O)(=O)c3ccc(C)c(Cl)c3)c(=O)[nH]2)cc1 -6.84%
Cc1ccc(NC(=O)C2CCCN2S(=O)(=O)c2cccc3nsnc23)cc1Cl (configuration not stated) 2.66%
Cc1ccc2c(c1)c1c(c(=O)n(-c3ccccc3)c(=O)n1CC(=O)c1ccc(F)cc1)n2C -5.05%
CCOc1ccc(CNC(=O)CC(C)n2nc(C)cc2C)cc1OC (configuration not stated) 2.91%
CC1=C(C(=O)Nc2ccc(C)cc2C)C(c2ccc(C(=O)O)cc2)n2nc(SCc3ccccc3)nc2N1 (configuration not stated) 6.71%
CCn1c(-c2nonc2N)nc2cnc(Oc3cccc(NC(=O)c4ccc(OCCN5CCOCC5)cc4)c3)cc21 13.8%
Cn1c(SCC(=O)N2CCCc3ccccc32)ncc(C(=O)Nc2ccccc2)c1=O -2.96%
CCc1nn2c(=O)cc(COC(=O)c3ccc(NC(=O)COc4ccc(C)cc4)cc3)nc2s1 -1.77%
COc1ccc(OC)c(CNC(=O)c2cnc3c(C)cccn3c2=O)c1 8.4%
CCc1cccc(NC(=O)Cn2c(=O)n(-c3cccc(Cl)c3)c(=O)c3c2c2cc(C)ccc2n3C)c1 2.51%
Cc1ccc2[nH]c(=O)c(CN(C(=O)c3cccc(Cl)c3)C(C)(C)C)cc2c1 -13.4%
Cc1ccccc1C(=O)Nc1cccc(C(=O)OCc2cc(=O)n3ccsc3n2)c1 20.7%
CCOC(=O)C(C)Sc1nc(-c2ccccc2Cl)cc(-c2ccccc2)c1C#N (configuration not stated) 9.4%
Cc1cc(C)cc(NC(=O)CSc2nc(=O)n(Cc3ccccn3)c3c2CCC3)c1 -6.16%
Cc1ccc(C(=O)COC(=O)C(Cc2c[nH]c3ccccc23)NC(=O)c2ccc(C(C)(C)C)cc2)cc1 (configuration not stated) 0.394%
Cc1cccc(C)c1OCc1cc(=O)n2c3c(sc2n1)CCCC3 -4.92%
CC(C)CC(=O)Nc1cc(-c2ccccc2F)nn1-c1ccccc1 -0.432%
C#C[C@]1(O)CC[C@@H]2[C@@H]3CCc4cc(O)ccc4[C@H]3CC[C@@]21C -8.37%
Cc1cccc(Oc2nc3c(c(=O)n(C)c(=O)n3C)n2Cc2ccccc2)c1C 68.8%
COc1ccc(-n2cc(-c3ccccc3)c3c(NC4CCCC4)ncnc32)cc1 -5.87%
CCOc1ccc(CCNc2nc3ccccc3n3c(C)nnc23)cc1OCC -14.7%
COc1ccc2sc(N(Cc3cccnc3)C(=O)COc3ccccc3)nc2c1 16.4%
COc1ccccc1-c1noc(CCCC(=O)NCc2ccco2)n1 -8.46%
Cc1cc(C)cc(NC(=O)Nc2nnc(N(C)C3CCCCC3)s2)c1 0.205%
COc1ccccc1Cc1nc2ccccc2nc1SCC(=O)Nc1cc(Cl)ccc1OC 4.43%
CCn1cnc2c(=O)oc3ccc(S(=O)(=O)Nc4ccc(OC)cc4)cc3c21 3.03%
CCOCCCn1c(=N)c(C(=O)NC2CCCC2)cc2c(=O)n3cc(C)ccc3nc21 3.18%
COc1ccc(CCNC(=O)c2ccc(Cn3c(=O)c4ccccc4n(Cc4cccc(C)c4)c3=O)cc2)cc1OC 3.22%
Cc1ccc(CNC(=O)c2cnn(-c3cccc(C)c3)c2C2CCN(C(=O)OC(C)(C)C)CC2)cc1 14.8%
